# From the RNAGym collection of RNA variant scans (doi:10.7554/elife.90254)
# Read counts are not given, so values of variants with three or more changes are uncertain.
# B1: LINE1-mini (parent)
# chain: GGCAGAGCUCAACACAGCGUGGCAAAGUGGCUGUGGCUAGACUGCC
# Variants of: B1
# Test: self-cleavage, relative activity (ratio to wild type); higher = more cleavage; in vitro, sequencing; the parent is a self-cleaving ribozyme
row,Variant,self-cleavage
1,A11U A16G U34G,0.04
2,A12C A16G A24U G27C U28A A39G A41G,0
3,A11U C13G C18U,0
4,A12C A16G U20C A41U,0.01
5,A12C C13G G19U G27U,0.02
6,A12C G17U C42U,0.13
7,A11U C13U C31U U38A,0.03
8,A12C G19A U20C G21A C23U C31U,0.01
9,A11U A16U G40A,0.04
10,A11U C31A A39C A41C,0
11,A12C G19A A25G,0.01
12,A11U G21C A26U,0.04
13,A11U G22C A25U G27U,0.07
14,A11U G21U U32A C37U C45A,0.01
15,A11U G19U C37A G44A,0
16,A11U G29U A41U G44C,0.09
17,A11U A16C U43A,0.01
18,A11U C23A A26C,0.18
19,A11U G22A G36A,0.02
20,A11U G22U A26U,0.03
21,A12C C13G A25G G29A A41U,0

row,Variant,self-cleavage
1,A12C C18A C23U,0.02
2,A12C C13U A14U U20C G21C A25U U28A G40C C42U,0.01
3,A11U C15G C31A C45G,0
4,A12C A16G C31A G44C,0.01
5,A12C C13A C31G,0.03
6,A12C G17C G36U C45A C46A,0.01
7,A11U G22A C37A,0.02
8,A11U A24U G44C,0.01
9,A12C A39G A41G,0.01
10,A11U G21U U28C,0.09
11,A11U C15A G33U C45A,0.03
12,A12C G17U G30A,0.02
13,A12C C15G G19U,0.01
14,A11U C13U G30A,0.05
15,A11U G30A C31U,0.03
16,A12C A16G C45U C46U,0.01
17,A12C G17C A41C,0
18,A11U C18U C37U,0.01
19,A11U A24G G40C U43G,0.01
20,A12C A25C U32C G33A C42U G44C C45U,0
21,A11U C18U U43A,0.02

row,Variant,self-cleavage
1,A11U G33C A39C,0.01
2,A11U A14G G44A,0.02
3,A11U C13U A14C A41G,0
4,A11U A26U G29A,0.14
5,A11U G29C G35U,0.02
6,A12C G19A G30U G35A C45A,0.07
7,A11U U28A C45G,0.02
8,A11U U20C U28C,0.07
9,A11U U28A G30U G35U U38G C45U,0.01
10,A12C A16C G33C C37G,0.01
11,A11U G19A G22U,0.06
12,A11U A16U G30A,0.07
13,A12C A24C A26U C46A,0.01
14,A11U G17C U28G A39C C45G C46U,0.01
15,A12C G17U U34A,0
16,A11U C13G A16G G17C G27U G30C G40A,0.01
17,A12C C23U A25U G36A C37U,0.03
18,A11U C13A G35C U43C,0
19,A12C C18A G30U G40U,0.01
20,A12C C13U A25C G36U,0.03
21,A11U C13A G40A,0.02

row,Variant,self-cleavage
1,A12C A14U G21C C23A A25U U28C U43A,0.04
2,A12C G17U U32A C37U,0.02
3,A11U C13A C23G C37A,0.04
4,A11U C13U A25G G44A,0.01
5,A12C C15U A16C,0
6,A11U U28A G44A,0.03
7,A12C C23A C45G,0.03
8,A12C A14C U28C G30A,0
9,A12C C13U C15G,0.01
10,A12C C15U C42U,0.04
11,A11U A24U A26G G27A G40A G44U,0.01
12,A11U C13G A26U A39G,0.02
13,A11U G17A G27U G29U,0.03
14,A12C A26U A41U,0.01
15,A11U C31U G40A,0.03
16,A11U A41U C46A,0.02
17,A12C A24C G35U,0.05
18,A12C C13A G19U A26G G30C G44U,0.01
19,A11U U38C C42G G44A,0
20,A11U U28A C31G C37U,0.01
